# In PubChem BioAssay AID434955 (Southern Research Specialized Biocontainment Screening …, 2010):
# This is one part of the list. Shown are side measurements of this screen, not its main read-out; they come without a call. Compounds called inactive in the main read-out are mostly missing here.
# Assay: beta-lactam sensitization of Mtb H37Rv, H37Rv (AID 434955);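 also: growth measured after seven days incubation then overnight dye step; 0% = bacteria only wells and 100% = bacteria with antibiotic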
# Conditions: M. tuberculosis H37Rv growth with meropenem, percent inhibition; measured here: primary screen without meropenem; at 25 µM
row,SMILES,inhibition
1,O=C(NCCCN1CCOCC1)c1ccc(N2CCOCC2)c([N+](=O)[O-])c1,-10.8%
2,CCc1ccc(S(=O)(=O)N2CCN(Cc3ccco3)CC2)cc1,6.06%
3,Cc1c(NC(=O)Nc2cccc(C#N)c2)c(=O)n(-c2ccccc2)n1C,8.93%
4,O=C(c1ccc(Oc2ccccc2)cc1)c1nc2c(n1O)CCCC2,54.2%
5,O=C(/C=C\c1ccc2c(c1)OCO2)NC1(C(=O)Nc2ccc3c(c2)OCCO3)CCCCC1,-2.34%
6,CC(C)c1cc(C(=O)N2CCCC(Nc3ccc(F)cc3)C2)n[nH]1 (stereo unspecified),-5.02%
7,COc1ccc(C2C(C(=O)O)CC(=O)N2C2CCCCC2)cc1 (stereo unspecified),-3.13%
8,O=C(COCc1cc(-c2ccc3c(c2)OCO3)on1)Nc1cccnc1Cl,85.4%
9,O=C(O)C1C(c2ccccc2)C(C(=O)OCCCO)C1c1ccccc1 (stereo unspecified),-7.19%
10,CCOc1ccccc1N(CC(=O)OC)S(=O)(=O)c1ccccc1,5.45%
11,CSc1cccc(CN2CCC(Oc3cccc(C(=O)N4CCCC4)c3)CC2)c1,5.91%
12,CCCCOC(=O)n1c(=O)oc2cc(S(=O)(=O)N3CCCCC3)ccc21,-1.49%
13,COc1cc(/C=C/C(=O)OCC(=O)Nc2cc(C)c(C)cc2[N+](=O)[O-])ccc1O,-5.92%
14,CN(C)CCCN(C(=O)c1ccc2c(c1)CCCC2)c1nc2c(F)cccc2s1,-3.67%
15,Cc1cc([N+](=O)[O-])c(-c2ccc(/C=N/n3cnnc3)o2)cc1Cl,-5.54%
16,Cc1ccc(S(=O)(=O)N2CCCCC2C(=O)N(C)c2ccccc2)cc1 (stereo unspecified),-9.98%
17,Cc1cc(C(=O)COC(=O)CN=C2NS(=O)(=O)c3ccccc32)c(C)n1CCc1ccc(Cl)cc1,3.26%
18,O=C(CCc1nnc2ccc(N3CCC4(CC3)OCCO4)nn12)NCc1ccc(F)cc1,-1.98%
19,c1ccc2c(c1)CC1CNCc3cccc(c31)S2 (stereo unspecified),12.9%
20,CCNc1nc(CN2CCCCC2)nc2scc(-c3ccccc3)c12,40.7%
21,Cc1cc(C)n2c(SCC#N)nnc2n1,-7.74%
22,COCCNC(=O)/C(C#N)=C/c1c(N2CCCCCC2)nc2ccccn2c1=O,5.57%

row,SMILES,inhibition
1,O=c1oc(-c2ccccc2F)nc2scc(-c3ccccc3)c12,7.37%
2,CC(=O)Nc1ccc(S(=O)(=O)NC2(C(F)(F)F)NC(=O)N(c3ccc(C)cc3)C2=O)cc1 (stereo unspecified),14.4%
3,O=C(/C=C/c1ccccc1)NC(=S)Nc1ccccc1O,73.8%
4,Cc1ccc(SCc2[nH]nc3c2C(c2ccc(C)o2)C(C#N)=C(N)O3)cc1 (stereo unspecified),2%
5,Cc1cccc(C)c1OCc1cc(C(=O)N2CCN(c3ccccc3)CC2C)no1 (stereo unspecified),61.7%
6,CCOc1ccccc1NC(=S)NC(=O)C1CC1,96.8%
7,Cc1cc2ccccc2n1CCNC(=O)COc1ccccc1,35%
8,CC1CCc2nn(CC(=O)NCCN3CCCCC3C)cc2C1 (stereo unspecified),-4.68%
9,CN1CCN(CC(=O)Nc2c(C(=O)C3CC3)oc3ccccc23)CC1,-1.34%
10,FC(F)(F)c1ccccc1/C=N/n1c(COc2ccccc2)n[nH]c1=S,-0.82%
11,CCCCCC1CC(CC#CCN2CCOCC2)C(=O)O1 (stereo unspecified),-2.08%
12,CC(C)(C)NC(=O)CSc1nc(-c2ccccc2)c(-c2ccccc2)[nH]1,1.55%
13,CCc1ccc(/C=N/n2c(C3CCCCC3)n[nH]c2=S)cc1,11.4%
14,O=c1c2ccccc2c(-c2ccccc2)nn1-c1ccccc1,35.6%
15,O=S(=O)(Nc1cccc(-n2cnnn2)c1)c1cnc(Cl)c(Cl)c1,-8.25%
16,O=C(COC(=O)CCSc1ccc(Cl)cc1)NCc1ccccc1,3.86%
17,Cc1ccc(S(=O)(=O)NNC(=O)NC23CC4CC(CC(C4)C2)C3)cc1,3.15%
18,Cc1cc(OCc2cc(C(=O)N(C)C3CCOCC3)no2)cc(C)c1Cl,3.27%
19,CCCn1c(=O)c(C(=O)NNC(=O)c2ccccc2[N+](=O)[O-])c(O)c2ccccc21,3.66%
20,CC(C)N1CCc2c(sc(NC(=O)c3ccc(S(=O)(=O)N(C)CC4CCCO4)cc3)c2C(N)=O)C1 (stereo unspecified),-0.72%
21,Cn1c2ccccc2c(=O)c2cc(C#CC3(O)CCCCC3)ccc21,31.1%
22,CCCCn1c(CCCNC(=O)c2ccco2)nc2ccccc21,-1.82%

row,SMILES,inhibition
1,Cc1ccc(C2=NN3C(=O)c4ccccc4C3C2)cc1 (stereo unspecified),44.9%
2,CCOC(=O)C1(Cc2cccc(Cl)c2)CCCN(C(=O)c2cc(C(C)C)nn2C)C1 (stereo unspecified),-0.27%
3,C=C(C)C(=O)OC1(C(F)(F)F)Oc2cc(C)ccc2NC1=O (stereo unspecified),-1.95%
4,CCCCNC(=O)c1sc2nc(C)cc(COC)c2c1-n1cccc1,-9.19%
5,CCCCC(NC(=O)Cc1c(C)c2cc3c4c(oc3cc2oc1=O)CCCC4)C(=O)O (stereo unspecified),-1.31%
6,CCC(=O)NC(=S)Nc1ccc(NC(=O)c2cccc([N+](=O)[O-])c2C)cc1,-13.5%
7,COc1cccc(NC(=S)Nc2cc(C)cc(C)n2)c1,-5.07%
8,O=C(COC(=O)C1CC(=O)N(c2ccccc2)C1)c1ccccc1 (stereo unspecified),-1.52%
9,O=C(CCCn1c(=O)[nH]c2cc(Cl)ccc2c1=O)NC1CCCCCC1,4.06%
10,COc1ccc(C(=O)/C=C/c2ccc(O)cc2)c(O)c1CC=C(C)C,30.6%
11,O=C(COc1ccc([N+](=O)[O-])cc1)N(Cc1ccccc1)Cc1ccccc1,11.4%
12,CCOC(=O)n1ccc(C(=O)Nc2ccccc2F)n1,-2.77%
13,COc1ccc(N2CC(C(=O)Nc3nnc(SCc4cccnc4)s3)CC2=O)cc1 (stereo unspecified),-0.63%
14,COc1ccccc1N(C)S(=O)(=O)c1ccc(C(=O)OCC(=O)N2CCCCCC2)cc1,6.94%
15,COc1ccc2nc(-c3ccccc3)cc(OC)c2c1,76.9%
16,Cc1cccc(Nc2c([N+](=O)[O-])c(=O)n(C)c3ccccc23)c1,1.36%
17,Cc1cc(OCc2cc(C(=O)NCc3csc(C(C)C)n3)no2)cc(C)c1Cl,29.4%
18,COc1ccc(C(=O)NC2CC2)cc1OC1CCN(Cc2cc(C)cc(C)c2)CC1,3.71%
19,CCN1CCN(CCCNC(=O)CN2C(=O)c3cccnc3Oc3ccc(Cl)cc32)CC1,-5.6%
20,CC(=O)Nc1ccc(SCC(=O)c2cc(C)n(CC(F)(F)F)c2C)cc1,26.1%
21,CC1(c2ccc([N+](=O)[O-])cc2)NC(=O)N(CC(=O)c2ccc3c(c2)OCO3)C1=O (stereo unspecified),-4.31%
22,O=C1c2ccccc2C(=O)c2c(Nc3ccc(CCO)cc3)ccc(O)c21,47.5%

row,SMILES,inhibition
1,COc1ccc(CN2CCNC(=O)C2CC(=O)N(C)Cc2ccon2)c(F)c1 (stereo unspecified),1.35%
2,Cc1nn(-c2ccccc2)c(C)c1C(=O)OCC(=O)N1CC(=O)Nc2ccccc21,-3.98%
3,CCc1c(C)c2ccc(OCC(=O)OC(C)C)c(C)c2oc1=O,91.2%
4,COc1cc(OC)cc(-c2cc3nc(C)c(CCC(=O)NC(C)CCc4ccco4)c(C)n3n2)c1 (stereo unspecified),91.6%
5,Cc1oc2cc3oc(=O)cc(C)c3cc2c1C,-2.99%
6,O=C(N=C1SC2CS(=O)(=O)CC2N1CCc1ccc(F)cc1)C1CCCCC1 (stereo unspecified),3.1%
7,Cc1ccc(C)c(-n2c(-c3csc(C)c3)n[nH]c2=S)c1,-2.89%
8,COc1ccccc1N1CCN(C(=O)C2CCCN(S(=O)(=O)c3ccc4c(c3)oc(=O)n4C)C2)CC1 (stereo unspecified),3.84%
9,Cc1cc2c(cc1S(=O)(=O)NCC(C)c1ccccc1)n(C)c(=O)c(=O)n2C (stereo unspecified),-2.26%
10,CCc1ccc2nc(/N=C(\N)NC(=O)c3ccccc3)nc(C)c2c1,-3.63%
11,O=C(Oc1c(-c2ccccc2)c(=O)n2c3c(cccc13)CC2)c1ccc(F)cc1,11%
12,NNC(=O)c1oc2nc(-c3ccco3)cc(-c3ccco3)c2c1N,24.4%
13,COc1ccccc1CN1CC(C(=O)NCc2cc(C)on2)CCC1=O (stereo unspecified),1.14%
14,C=CCSc1nnc2c(n1)OC(c1c(C)[nH]n(-c3ccccc3)c1=O)Nc1ccccc1-2 (stereo unspecified),5.55%
15,Cc1cc(C(=O)Nc2nnc(C(F)(F)F)s2)no1,1.21%
16,CCn1c(CSc2nc(C)cs2)nc2cc(S(=O)(=O)N(C)C)ccc21,-2.89%
17,O=C(CCCN=C1NS(=O)(=O)c2ccccc21)OCC(=O)N1CCc2ccccc21,1.2%
18,Cc1cc2nc(C)n(CCCNC(=O)Nc3ccc(F)cc3)c2cc1C,5.04%
19,CCOC(=O)c1[nH]c(C)c(C(=O)Nc2cc(OC)ccc2OC)c1C,-0.71%
20,COc1ccc(-c2csc(-c3cccs3)n2)c(OC)c1,10.1%
21,COC(C(=O)Nc1ccnn1C1CCN(Cc2nccs2)CC1)c1ccccc1 (stereo unspecified),0.27%
22,CCOCC(=O)Nc1cc(C(F)(F)F)ccc1Oc1cccc(Br)c1,33.9%

row,SMILES,inhibition
1,COCc1nnc(NC(=O)c2ccc(S(=O)(=O)N(C)c3ccccc3)cc2)o1,11.1%
2,O=C1C(Cl)=C(N2CCCCCC2)C(=O)N1c1ccccc1Cl,-5.67%
3,COC(=O)c1ccc(NC(=O)CSc2nn3c(=O)c(C)nnc3s2)cc1,0.81%
4,Cc1ccc(OCc2nnc(SCc3ccc(C#N)cc3)n2-c2ccc(C)cc2)cc1,8.31%
5,Cc1noc(C)c1COc1ccc(C(=O)Nc2ccccn2)cc1,-1.09%
6,N#Cc1c(N)[nH]c(=S)c(C#N)c1-c1ccccc1,-4.37%
7,COC(=O)C1=C(C)N=C2SCCC(=O)N2C1c1ccc(C(=O)OC)cc1 (stereo unspecified),-11.6%
8,COc1cc(NC(=O)C23CC4CC(C2)CC(n2nnc(C)n2)(C4)C3)c(OC)cc1Cl,2.98%
9,COc1ccc(NS(=O)(=O)c2ccc3nc(COc4ccc(C#N)cc4)[nH]c3c2)cc1,4.82%
10,O=C(NN=C(Cc1ccccc1)Cc1ccccc1)c1ccccc1F,9.42%
11,O=C(CSc1nc2ccccc2o1)N1CCOCC1,-2.89%
12,O=C(Cc1ccccc1Cl)Nc1nc2ccccc2[nH]1,4.62%
13,O=C(CN1CCN(S(=O)(=O)c2ccc(F)cc2)CC1)Nc1ccc2c(c1)OCCO2,32.5%
14,Cc1nn(-c2ccccc2)cc1/C=N/NC(N)=S,34.3%
15,O=C(c1ccc([N+](=O)[O-])cc1)N(Cc1cccs1)C1CCS(=O)(=O)C1 (stereo unspecified),0.03%
16,CC(=O)N1CCc2cc(S(=O)(=O)N3CCc4ccccc43)ccc21,6.74%
17,Cc1ccc(-c2nc3sc(C(N)=O)c(N)c3c3c2CCCC3)cc1,4.43%
18,COc1cc(NC(=O)c2cc(Cl)ccc2Cl)ccc1-c1cc2ccccc2oc1=O,70.4%
